First the molecules themselves.
B1: ENSG00000124766:be:win_251|CDS|ENSG00000124766|bound_else_gene|NA|bound_elsewhere_windowed (ssRNA)
RNA: GGGAGUUCUACAGUCCGACGAUCUGCACAACGCCGAGAUCUCCAAGCGGCUGGGCAAACGCUGGAAGCUGCUCAAAGACAGCGACAAGAUCCCUUUCAUUCGAGAGGCGGAGCGGCUGCGCCUCAAGCACAUGGCUGACUACCCAACAGAGGAUUGAGCAUCA
B2: chr5:103210461:103210562:+|3pUTR|ENSG00000145725|unk|total|mutant (ssRNA)
RNA: GGGAGUUCUACAGUCCGACGAUCGAAUAAGGAGCUGGGAGAAAGGAGACCUGGGUAUUAAUCUCAGCUCUACCACUACAUGGCCGAGCUAUGCCGUGGCCGACUAUCUGGGAGACUCCCGAAUCUUUACCAUUCCCUCUACUACAACAGAGGAUUGAGCAUCA
B3: ENSG00000039319:stop:overlap|stop_codon|ENSG00000039319|stop_codon|NA|stop_codon (ssRNA)
RNA: GGGAGUUCUACAGUCCGACGAUCCCAACUCUAGUUUACCAUUAGAAAUAGAAUUAGUGUUUUUCAUUAUAGAACAUCUUUUUUAGUGAAAGAAUGUGCCAUAUUACAUAUUGCAACCUAAUUUGUUAAAACUAACUCCAGCACCAACAGAGGAUUGAGCAUCA
B4: chr5:83942588:83942842:-|3pUTR|ENSG00000164176|msi1|total|mutant (ssRNA)
RNA: GGGAGUUCUACAGUCCGACGAUCUUUUCUAAUUGAAUUUCCUAUCCGUUGACUAAAAGAAGUGUCAUGUUUACUCAUAUAUGCCGAACAUGACUGCCUAUCAGCCGAUUGAUCUGUAUUUAAUAUUCGUUAAUUAAAUCUGCACAACAGAGGAUUGAGCAUCA
B5: chr7:135928980:135929074:-|3pUTR|ENSG00000105887|msi1_unk|FALSE|overlapping (ssRNA)
RNA: GGGAGUUCUACAGUCCGACGAUCUAAAAAUAGAAUCAUAGCCAUAAGCCUGUUAGUAUCAUAUGAAGAGAGAACAGUUAUCUUAGUACCUAUGGAUUUUCUUUAUUUGCUGUUUGAAUGGAUUGACCUUGGUUAUGUGUUGAGCAACAGAGGAUUGAGCAUCA
B6: chr7:66987971:66988072:-|3pUTR|ENSG00000126524|unk|total|mutant (ssRNA)
RNA: GGGAGUUCUACAGUCCGACGAUCAAGUUACUUGAGGCAGCUCUUGUGGGUGAAAAGUUAUUUGUACAGCCGAGUAAGAUUAUCCGGGGUAUGUCUAUACAACAAAAGGGGGGGUCUUUCCUAAAAAAGAAAACAUAUGAUGCUCAACAGAGGAUUGAGCAUCA

Some of the results follow.

The assay deals with MSI1 full-length (mouse, UniProt Q61474 1-362). Put plainly: nsRBNS (natural sequence RNA bind-n-seq); RBNS binding buffer (assumed for nsRBNS): 25 mM Tris pH 7.5, 150 mM KCl, 3 mM MgCl2, 0.01% Triton X-100, 500 ug/ml BSA, 20 U/ml SUPERase-In, 4 C; UNK is unkempt and MSI1 is Musashi-1; names of the RNAs are library labels; protein concentration not given here; high values mean tight binding.
Chain of UniProt Q61474 (Q61474 whole entry): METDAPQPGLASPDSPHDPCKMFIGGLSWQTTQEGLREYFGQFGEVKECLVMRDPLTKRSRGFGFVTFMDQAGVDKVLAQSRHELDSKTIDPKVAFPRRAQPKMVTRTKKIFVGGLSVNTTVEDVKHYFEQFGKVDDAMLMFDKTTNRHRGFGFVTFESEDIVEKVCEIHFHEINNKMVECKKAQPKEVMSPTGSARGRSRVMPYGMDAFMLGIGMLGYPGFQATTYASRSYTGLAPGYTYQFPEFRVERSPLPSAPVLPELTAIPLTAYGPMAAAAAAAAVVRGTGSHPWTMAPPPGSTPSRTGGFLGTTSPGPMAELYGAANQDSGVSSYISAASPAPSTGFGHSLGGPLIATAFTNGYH
As for B1, the binding signal is 0.383 enrichment R. Under B2 stands 0.459 enrichment R; under B3, 0.848 enrichment R. Under B4 stands 0.411 enrichment R; under B5, 1.99 enrichment R. With B6, the binding signal stood at 0.484 enrichment R.

Source of the values: paper PMC12136788.
